# In all, about 150,000 compounds went through this assay and about 540 (0.36%) showed an effect of 50% or more. This is one part of the list.
# System: Plasmodium falciparum
# Assay: Primary screen in NF54 nanoGlo assay, in single point, at 2uM, 72h; a lower Z score goes with more inhibition
# Format: functional, Erythrocyte
# Conditions: timepoint 72 hour
Compound,% Inhibition [%],Z score
CCCN1C(=O)c2ccccc2N2C(=O)CC[C@@]12C(=O)Nc1nc(C)cs1,2,-0.31
COc1ccc(CN2C(=O)O[C@H]3CN(C4CCCC4)C[C@H]32)cc1OC,-1,0.23
COc1ccc(-c2noc(CCC(=O)N[C@H]3CCS(=O)(=O)C3)n2)cc1OC,-3,0.42
CCc1ccc([C@@H]2COCCN2C(=O)c2nnn(-c3ccc(C)cc3)c2C)o1,-6,0.85
Cc1cc(-c2cc(S(=O)(=O)NCCc3ccc(Cl)cc3)c(C)s2)[nH]n1,-5,0.93
CC1CN(C(=O)Nc2ccc(N3CC(C)OC(C)C3)cc2)CCO1 (stereo not given),-14,1.28
O=C1CN(S(=O)(=O)c2ccc(Cl)c(Cl)c2)C[C@H]2c3ccccc3CCN12,0,0.06
C[C@H]1CC[C@@](C)(C(=O)NCc2nnc[nH]2)C1(C)C,3,-0.59
O=C(Nc1nonc1NC(=O)C(F)(F)F)C(F)(F)F,7,-0.86
COc1nccc(CNC(=O)N2CCC3(CCCC3)C2)n1,33,-3.69
COCc1c(C(=O)N[C@H]2CN(S(C)(=O)=O)C[C@@H]2C(C)C)noc1C,2,-0.28
CCCNC1(Cc2cc(COC)on2)COC1,-10,1.86
Cc1noc(C)c1CC(=O)N1C[C@@H]2C[C@H](NC(=O)c3ccccc3)[C@H]1C2,29,-3.26
N#CCN(C(=O)Cn1c(C(F)(F)F)ccc(C(N)=O)c1=O)c1ccccc1,-8,1.58
O=C(NCCOc1cccc(Cl)c1Cl)c1cncc(Br)c1,1,-0.09
Cc1ccc(Cl)c(CN[C@H]2CCCN(Cc3cccc(O)c3)C2)c1F,-13,2.09
Cc1ccoc1C(=O)N1CCNC[C@H]1C(=O)Nc1ccc(F)cc1,-17,2.62
COc1cc(F)c(CN(Cc2cccnc2)C2CCN(C)CC2)cc1OC,-5,0.89
CC(=O)Nc1c(-c2ccc(C)cc2)c(C)nn1-c1ccc(C(=O)Nc2cc(C)ccn2)cc1,59,-6.89
C[C@H]1C(=O)N(c2ccc(F)c(Cl)c2)CCN1C(=O)CCc1ccccc1,-9,1.09
CCOC(=O)N1CCc2c(sc(NCc3cccnc3)c2C(=O)Nc2ccccc2OCC)C1,2,-0.39
CCc1ccccc1CNC(=O)C1CN(CC(F)F)C1,-3,0.69

Compound,% Inhibition [%],Z score
CC(C)NS(=O)(=O)[C@H]1CCN(Cc2cccn2C)C1,1,-0.15
COc1ccc(C)cc1S(=O)(=O)N1CCC[C@H](c2nnc(C)s2)C1,-11,1.66
CC1(C)C[C@]2(NC(=O)N(CC(=O)Nc3ccc4c(c3)CCC4)C2=O)C(C)(C)O1,-14,2.81
CCN(CC)C(=O)C(=O)N1CCOCC1,5,-0.63
N#Cc1ccc(CN2C[C@@H](CO)[C@H](NC(=O)c3cccnc3)C2)cc1,-8,1.43
COCC1(Cn2cnc(-c3ccccc3)c2-c2cccs2)CC1,-8,1.47
CC(C)c1noc(C(C)N2CC3CC=CCC3C2)n1 (stereo not given),-2,0.26
COc1ccccc1-c1c(C)nn2c(N3CCc4ccccc4C3)cc(C)nc12,-7,1.12
CC(=O)Nc1ccc(N2C(=O)c3cc(C)nn3C[C@@]2(C)C(=O)NCc2ccc(C)cc2)cc1,-17,2.72
CCOc1ccccc1C(=O)Nc1ncn(CC(=O)N2CCCCCC2)n1,3,-0.46
O=C1NC(=O)[C@H](CC(=O)N2CCc3sccc3C2)N1,0,0
O=C(NCc1ccc(-c2nc(-c3ccc(F)cc3)no2)s1)c1ccccc1F,-3,0.57
Cc1nc(CN2CCN(CCS(C)(=O)=O)CC2)nc2ccccc12,1,-0.06
Cc1nnc([C@H](C)NCc2ccc(F)c(C)c2)[nH]1,-10,1.99
COc1ncc(Cl)c(N2CCn3c(nnc3C(F)(F)F)C2)n1,-4,0.58
C[C@H](NC(=O)CCc1ccc(F)cc1F)c1ccc2c(c1)CC(=O)N2,-7,1.22
O=C1CCc2cc(NC(=O)N3CCC[C@H](c4cc(F)ccc4F)C3)ccc2N1,-6,0.75
CCn1nccc1C=Cc1nc(=O)c(OC)c[nH]1,2,-0.46
CCCCN1C(=O)C2C(CCC(N)=O)NC3(C(=O)Nc4ccc(F)cc43)C2C1=O (stereo not given),-4,0.67
Cc1ccc(CNC(=O)Nc2ccc(N3CCNC(=O)C3)nc2)s1,-9,1.73
Clc1cnc(N2CCN(C3CCC3)CC2)nc1,-4,0.81
O=C(C1CCCCN1C(=O)C1CC2CCC1O2)N1CCCC1 (stereo not given),-6,1.08

Compound,% Inhibition [%],Z score
C[C@H](NC(=O)NC1CCCCC1)C(=O)N(C)C,-5,0.95
CCc1nncn1CCNC(=O)N1CCC[C@H](C)CC1,-11,1.32
O=C(O)Cc1cccc(NC(=O)[C@@H]2C[C@]23CCOc2ccccc23)c1,-6,0.64
Cc1c(C(=O)NCc2ccc(Cl)cc2)cnn1-c1cc(-c2nc(C3CC3)no2)ccn1,-4,0.65
CC(C)(C)c1cc(Cn2cnc(-c3ccccc3)c2[C@H]2CCOC2)n[nH]1,5,-0.64
CCS(=O)(=O)NCCNc1ccc(-n2cccn2)nn1,-6,0.68
CCn1ncnc1CNC(=O)c1ccc(C(N)=O)s1,-6,0.78
O=C(NCc1ccc(F)cc1)C1Cc2cc(C(F)(F)F)ccc2N2CCN(c3ccccc3)CC12 (stereo not given),4,-0.57
Cc1cccc2nnc(-c3cnc(-c4ccccc4)nc3)n12,-5,0.71
O=C(NCCc1noc([C@@H]2CCCO2)n1)Nc1cccc(-n2cncn2)c1,-23,2.96
Cc1cc(N2CC(C)OC(C)C2)ncn1 (stereo not given),-16,2.38
Cc1ccc(C(=O)Nc2cccc(NC(=O)c3ccccc3)c2)c2ccccc12,-5,0.61
CC(C)[C@H]1C(=O)N(C)CCN1C(=O)c1cccc(O)n1,-9,1.86
C[C@@H](NC(=O)C1CN2CCCN1CC2)c1ccccc1 (stereo not given in full),-5,0.8
O=C(Nc1cc(C(=O)N2CC3CCCC2C3)c2c(c1)ncn2C1CCCC1)c1ccccc1 (stereo not given),-4,0.52
Cc1nc(CNC(=O)c2ccc(N3N=C(Cc4ccccc4)CC3=O)cc2)no1,9,-1.15
CC(Oc1cccc(OCC2CCC3CC3C2)c1)C(N)=O (stereo not given),0,-0.01
O=C(CCOc1ccc(F)c(Cl)c1)NCc1cccs1,-11,1.48
COCCO[C@H]1CN(C2CCN(S(C)(=O)=O)CC2)C12CCCCC2,-10,1.91
c1coc(-c2nc(COc3ccc4c(c3)OCO4)cs2)c1,9,-1.27
CC(=O)Nc1ccc(-c2nc(C)nn2-c2cccc3cccnc23)cn1,1,-0.13
COCCCNc1cncc2ncnn12,-2,0.29

Compound,% Inhibition [%],Z score
O=C(OCc1nnnn1-c1ccccc1)C1(c2ccccc2)CCCC1,1,-0.13
CC(C)[C@@H](CO)NC(=O)c1cc(C(F)F)ncn1,21,-2.69
COc1cccc(CN2CCCN(c3ccc(C)cc3NS(=O)(=O)c3cccc(Cl)c3)C2=O)c1,-6,0.93
CCOc1ncccc1-c1ccc(N(C)CCO)nn1,-10,0.94
O=C1CN(c2ncnc3c2CCC3)CCN1Cc1ccccc1F,7,-1.17
O=C(Nc1ccc2ccoc2c1)N1CC[C@H](C2CCOCC2)C1,-16,2.24
COc1cccc2c(N3CCC[C@@H](C(=O)NC(C)C)C3)nccc12,2,-0.48
N#Cc1ccccc1S(=O)(=O)Cl,-12,1.61
O=C1COc2ccc(S(=O)(=O)N3CCC[C@H]3c3ccccc3)cc2N1,20,-2.48
COc1ccc(-c2nc3noc(C)c3c(N)c2C#N)cc1,-36,4.25
COc1cc2c(cc1OC)[C@H](CNC(=O)c1ccccc1)N(Cc1cccc(F)c1)CC2,-12,1.8
CCN(CC)CC(O)COc1c(Br)cc(C(C)(C)c2cc(Br)c(OCC(O)CN(CC)CC)c(Br)c2)cc1Br (stereo not given),99,-13.36
CC1(C)CCC2c3ccccc3NC3C(C)(C)C=C1C23C (stereo not given),-3,0.68
COCCNC(=O)CN[C@@H](C)c1nc(C)cs1,-18,1.89
OC1c2ccccc2CC1NCc1ccc(-c2ccn[nH]2)o1 (stereo not given),-19,1.91
Cc1cc(Oc2ncccn2)ccc1NC(=O)c1c(C)oc(C)c1C,-1,0.19
O=C(CCC(F)(F)F)N1CC[C@@]2(CCCN(CCCc3ccccc3)C2)C1,-6,0.76
COc1cc(C)c(CN2CC(N3CCCCC3)C2)cc1C,-5,0.86
Clc1ccc(-c2cc3c(N4CCN(C5CCCCC5)CC4)nccn3n2)cc1,5,-0.71
